Laboratory results from article PMC4191403.
Results are given in words; binding and its absence hold for the method and conditions named. For part of these data: In cells and extracts the contact can be indirect. Some entries that bind do so weakly or less than the wild type.

Amino acid sequences for entries named in this document (tags omitted). A change or cut given only in a name is not applied to a line headed by its entry. Chains listed by the source or under a name are the forms on record and can include a tag or linker. Residues count along the entry.
UniProt P38398: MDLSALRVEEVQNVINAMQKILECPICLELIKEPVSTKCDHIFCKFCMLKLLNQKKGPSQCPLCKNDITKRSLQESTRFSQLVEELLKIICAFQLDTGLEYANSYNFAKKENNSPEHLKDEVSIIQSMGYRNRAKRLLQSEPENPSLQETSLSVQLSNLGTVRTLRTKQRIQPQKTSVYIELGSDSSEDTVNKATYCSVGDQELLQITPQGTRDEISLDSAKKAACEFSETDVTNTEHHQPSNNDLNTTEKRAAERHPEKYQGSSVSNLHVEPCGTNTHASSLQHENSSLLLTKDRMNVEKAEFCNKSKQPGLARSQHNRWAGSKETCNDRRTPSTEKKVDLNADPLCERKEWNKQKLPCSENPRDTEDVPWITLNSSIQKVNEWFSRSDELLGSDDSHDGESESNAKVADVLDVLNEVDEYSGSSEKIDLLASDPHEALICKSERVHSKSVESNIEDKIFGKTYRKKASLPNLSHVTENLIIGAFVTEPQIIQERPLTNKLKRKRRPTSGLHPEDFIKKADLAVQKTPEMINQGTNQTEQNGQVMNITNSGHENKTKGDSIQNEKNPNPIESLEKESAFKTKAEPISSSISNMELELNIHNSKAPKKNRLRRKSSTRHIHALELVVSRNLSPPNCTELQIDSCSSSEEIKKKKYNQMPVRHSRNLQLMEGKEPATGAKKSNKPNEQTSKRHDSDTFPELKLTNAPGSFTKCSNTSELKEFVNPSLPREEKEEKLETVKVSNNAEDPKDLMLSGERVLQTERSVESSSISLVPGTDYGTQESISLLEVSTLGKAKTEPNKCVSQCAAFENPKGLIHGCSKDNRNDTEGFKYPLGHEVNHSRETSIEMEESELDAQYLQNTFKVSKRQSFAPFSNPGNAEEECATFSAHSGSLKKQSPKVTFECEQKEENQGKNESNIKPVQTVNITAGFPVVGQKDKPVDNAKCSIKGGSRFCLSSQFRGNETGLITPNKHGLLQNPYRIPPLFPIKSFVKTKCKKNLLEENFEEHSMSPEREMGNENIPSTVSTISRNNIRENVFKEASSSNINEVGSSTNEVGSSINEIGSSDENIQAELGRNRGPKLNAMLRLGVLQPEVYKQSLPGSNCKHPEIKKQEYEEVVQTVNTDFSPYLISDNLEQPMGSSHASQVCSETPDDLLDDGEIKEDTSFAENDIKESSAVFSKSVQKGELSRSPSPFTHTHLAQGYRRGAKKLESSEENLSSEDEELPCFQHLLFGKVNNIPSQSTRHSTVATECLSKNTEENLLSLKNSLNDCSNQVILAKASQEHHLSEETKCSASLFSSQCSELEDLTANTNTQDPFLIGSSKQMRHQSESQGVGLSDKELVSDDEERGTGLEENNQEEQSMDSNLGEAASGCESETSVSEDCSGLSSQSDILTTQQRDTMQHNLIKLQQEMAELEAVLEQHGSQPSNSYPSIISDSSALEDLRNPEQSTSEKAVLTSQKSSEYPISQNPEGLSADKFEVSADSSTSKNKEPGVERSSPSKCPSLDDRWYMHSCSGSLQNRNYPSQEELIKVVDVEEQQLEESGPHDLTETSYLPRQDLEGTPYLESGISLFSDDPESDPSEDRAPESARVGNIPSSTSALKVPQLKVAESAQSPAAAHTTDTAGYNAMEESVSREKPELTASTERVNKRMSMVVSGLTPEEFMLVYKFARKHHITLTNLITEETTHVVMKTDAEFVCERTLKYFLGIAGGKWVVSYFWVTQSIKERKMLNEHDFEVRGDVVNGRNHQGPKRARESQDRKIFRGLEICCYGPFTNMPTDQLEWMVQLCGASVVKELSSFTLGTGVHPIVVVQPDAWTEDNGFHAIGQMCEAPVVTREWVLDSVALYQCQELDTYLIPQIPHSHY
FLAG-tagged BRCA1 fragment, amino acids 1-1315: residues 1-1315 of P38398
FLAG-tagged BRCA1 fragment, amino acids 302-1863: residues 302-1863 of P38398
FLAG-tagged BRCA1 fragment, amino acids 1313-1863: residues 1313-1863 of P38398
UniProt P78527: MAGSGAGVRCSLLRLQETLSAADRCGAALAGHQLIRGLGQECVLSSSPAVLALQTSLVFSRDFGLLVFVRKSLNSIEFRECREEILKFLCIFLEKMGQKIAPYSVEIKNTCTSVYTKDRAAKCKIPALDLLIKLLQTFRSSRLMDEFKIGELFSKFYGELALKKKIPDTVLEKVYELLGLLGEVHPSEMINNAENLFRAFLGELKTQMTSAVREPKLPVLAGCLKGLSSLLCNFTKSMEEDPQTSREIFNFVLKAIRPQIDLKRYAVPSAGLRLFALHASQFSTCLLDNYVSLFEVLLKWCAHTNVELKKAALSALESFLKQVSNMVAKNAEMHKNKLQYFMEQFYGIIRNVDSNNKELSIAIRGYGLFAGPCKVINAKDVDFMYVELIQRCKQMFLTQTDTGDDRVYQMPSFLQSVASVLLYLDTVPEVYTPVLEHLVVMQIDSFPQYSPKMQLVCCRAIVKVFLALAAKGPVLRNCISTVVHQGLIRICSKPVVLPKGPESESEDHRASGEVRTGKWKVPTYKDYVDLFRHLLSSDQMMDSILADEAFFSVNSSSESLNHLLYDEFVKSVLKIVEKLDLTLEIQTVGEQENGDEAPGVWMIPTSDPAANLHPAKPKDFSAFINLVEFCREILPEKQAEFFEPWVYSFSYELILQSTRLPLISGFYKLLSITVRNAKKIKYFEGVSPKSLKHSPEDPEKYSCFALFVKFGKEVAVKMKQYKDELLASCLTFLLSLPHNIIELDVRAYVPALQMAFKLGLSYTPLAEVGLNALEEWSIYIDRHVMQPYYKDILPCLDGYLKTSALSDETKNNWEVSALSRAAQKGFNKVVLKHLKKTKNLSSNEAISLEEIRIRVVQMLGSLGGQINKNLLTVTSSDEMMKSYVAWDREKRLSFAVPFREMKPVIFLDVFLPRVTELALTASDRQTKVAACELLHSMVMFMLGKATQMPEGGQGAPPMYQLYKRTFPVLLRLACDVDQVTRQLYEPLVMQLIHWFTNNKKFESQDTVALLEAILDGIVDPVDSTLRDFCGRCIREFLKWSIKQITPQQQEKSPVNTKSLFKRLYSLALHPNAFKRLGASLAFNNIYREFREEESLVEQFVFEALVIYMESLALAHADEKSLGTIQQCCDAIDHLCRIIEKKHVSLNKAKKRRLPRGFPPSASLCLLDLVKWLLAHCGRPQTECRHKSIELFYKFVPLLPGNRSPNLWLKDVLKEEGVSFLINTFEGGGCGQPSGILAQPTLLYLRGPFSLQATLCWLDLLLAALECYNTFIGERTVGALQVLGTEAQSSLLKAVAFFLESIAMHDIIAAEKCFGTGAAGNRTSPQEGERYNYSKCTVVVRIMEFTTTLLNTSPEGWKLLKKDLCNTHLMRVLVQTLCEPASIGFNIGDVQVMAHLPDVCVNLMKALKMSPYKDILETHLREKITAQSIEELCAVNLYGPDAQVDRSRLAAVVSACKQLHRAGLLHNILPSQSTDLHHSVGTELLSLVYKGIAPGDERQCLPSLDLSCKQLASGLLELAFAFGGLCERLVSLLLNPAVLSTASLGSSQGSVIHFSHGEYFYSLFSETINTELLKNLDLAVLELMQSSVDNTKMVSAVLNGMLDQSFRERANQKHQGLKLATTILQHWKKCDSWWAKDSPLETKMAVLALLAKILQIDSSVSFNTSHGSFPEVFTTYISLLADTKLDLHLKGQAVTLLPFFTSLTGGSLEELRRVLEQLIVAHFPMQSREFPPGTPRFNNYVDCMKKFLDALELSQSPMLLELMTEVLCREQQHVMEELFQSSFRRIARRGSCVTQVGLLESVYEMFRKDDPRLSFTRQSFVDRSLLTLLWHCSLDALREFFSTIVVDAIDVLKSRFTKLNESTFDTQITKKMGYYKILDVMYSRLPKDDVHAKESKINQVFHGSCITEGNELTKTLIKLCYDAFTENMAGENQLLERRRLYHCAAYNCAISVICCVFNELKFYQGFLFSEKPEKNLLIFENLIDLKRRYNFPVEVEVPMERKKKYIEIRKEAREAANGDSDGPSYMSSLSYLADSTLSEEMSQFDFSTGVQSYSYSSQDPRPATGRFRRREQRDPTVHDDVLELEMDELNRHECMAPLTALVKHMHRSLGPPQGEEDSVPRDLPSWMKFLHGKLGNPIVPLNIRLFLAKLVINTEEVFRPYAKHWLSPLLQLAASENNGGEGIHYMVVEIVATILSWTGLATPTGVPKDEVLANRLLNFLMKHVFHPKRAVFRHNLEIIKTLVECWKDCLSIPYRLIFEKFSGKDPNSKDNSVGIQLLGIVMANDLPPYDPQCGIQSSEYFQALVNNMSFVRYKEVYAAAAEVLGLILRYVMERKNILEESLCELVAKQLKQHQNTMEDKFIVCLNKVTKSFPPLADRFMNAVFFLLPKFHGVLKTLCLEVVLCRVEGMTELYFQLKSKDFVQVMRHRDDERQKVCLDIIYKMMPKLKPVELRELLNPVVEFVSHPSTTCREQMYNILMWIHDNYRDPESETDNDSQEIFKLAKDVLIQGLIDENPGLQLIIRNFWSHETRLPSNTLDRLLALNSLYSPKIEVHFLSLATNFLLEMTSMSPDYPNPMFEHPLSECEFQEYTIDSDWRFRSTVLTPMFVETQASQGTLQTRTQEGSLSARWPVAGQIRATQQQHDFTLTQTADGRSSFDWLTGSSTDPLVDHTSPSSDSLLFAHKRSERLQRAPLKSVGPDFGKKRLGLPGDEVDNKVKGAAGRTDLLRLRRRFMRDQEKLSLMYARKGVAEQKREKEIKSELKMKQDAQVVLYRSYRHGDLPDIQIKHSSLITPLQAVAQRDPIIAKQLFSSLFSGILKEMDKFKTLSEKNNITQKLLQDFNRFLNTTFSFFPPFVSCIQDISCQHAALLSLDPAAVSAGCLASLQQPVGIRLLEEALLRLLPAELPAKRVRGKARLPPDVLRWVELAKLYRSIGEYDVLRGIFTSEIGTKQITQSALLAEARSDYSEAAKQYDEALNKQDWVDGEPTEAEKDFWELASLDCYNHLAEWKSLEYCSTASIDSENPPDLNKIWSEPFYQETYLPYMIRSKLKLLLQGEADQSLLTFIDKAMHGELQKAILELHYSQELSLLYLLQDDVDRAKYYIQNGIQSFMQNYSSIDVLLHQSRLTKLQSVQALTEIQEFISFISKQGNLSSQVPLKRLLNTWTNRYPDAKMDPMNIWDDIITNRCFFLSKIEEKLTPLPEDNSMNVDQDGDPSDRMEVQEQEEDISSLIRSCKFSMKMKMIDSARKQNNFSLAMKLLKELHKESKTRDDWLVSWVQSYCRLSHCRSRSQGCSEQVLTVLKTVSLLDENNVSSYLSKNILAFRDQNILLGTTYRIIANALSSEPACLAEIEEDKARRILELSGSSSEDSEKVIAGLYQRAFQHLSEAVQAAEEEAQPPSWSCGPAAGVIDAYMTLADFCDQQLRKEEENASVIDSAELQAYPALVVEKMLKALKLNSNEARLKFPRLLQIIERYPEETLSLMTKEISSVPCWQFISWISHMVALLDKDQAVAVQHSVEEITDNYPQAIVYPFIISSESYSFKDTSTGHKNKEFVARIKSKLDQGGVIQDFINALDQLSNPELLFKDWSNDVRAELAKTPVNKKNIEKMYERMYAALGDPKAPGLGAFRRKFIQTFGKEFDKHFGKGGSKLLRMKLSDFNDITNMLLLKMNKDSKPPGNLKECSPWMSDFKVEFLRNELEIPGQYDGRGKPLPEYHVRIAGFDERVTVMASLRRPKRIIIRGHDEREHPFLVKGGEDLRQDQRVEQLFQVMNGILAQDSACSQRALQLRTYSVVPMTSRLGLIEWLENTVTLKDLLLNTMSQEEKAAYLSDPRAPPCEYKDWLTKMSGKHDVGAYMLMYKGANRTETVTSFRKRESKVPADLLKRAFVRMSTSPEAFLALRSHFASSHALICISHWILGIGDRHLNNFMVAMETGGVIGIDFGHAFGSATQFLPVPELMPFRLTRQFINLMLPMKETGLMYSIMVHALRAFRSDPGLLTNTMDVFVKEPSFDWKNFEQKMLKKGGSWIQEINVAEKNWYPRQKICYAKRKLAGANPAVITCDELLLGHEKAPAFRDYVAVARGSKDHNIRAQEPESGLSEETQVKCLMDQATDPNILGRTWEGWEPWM
FLAG-tagged N-terminal fragment of DNA-PKcs (amino acids 1-2713): residues 1-2713 of P78527
GST-tagged DNA-PKcs fragment, amino acids 1500-2000: residues 1500-2000 of P78527

Tests used:
[1] = biological target: FLAG-tagged BRCA1 fragment, amino acids 302-1863 (UniProt P38398); assay: co-IP; FLAG-tagged BRCA1 or fragments transiently expressed in HeLa, IP with FLAG antibody, blot for endogenous DNA-PKcs
[2] = biological target: FLAG-tagged BRCA1 fragment, amino acids 1-1315 (UniProt P38398); assay: as above
[3] = biological target: FLAG-tagged full-length BRCA1 (UniProt P38398); assay: as above
[4] = biological target: FLAG-tagged BRCA1 fragment, amino acids 1313-1863 (UniProt P38398); assay: as above
[5] = biological target: FLAG-tagged BRCA1 fragment, amino acids 1-304 (UniProt P38398); assay: as above
[6] = biological target: BRCA1 (Breast Cancer 1, early onset), endogenous in HeLa cells (human (endogenous in HeLa)) (UniProt P38398); assay: co-IP; endogenous proteins from HeLa lysate (50 mM Tris pH 7.5, 250 mM NaCl, 1 mM EDTA, 0.1% NP-40), antibody on protein G agarose, 4°C overnight; reciprocal IPs; cells mock or 10 Gy irradiated, with or without 100 μg/ml ethidium, asynchronous or synchronised in S or non-S phase
[7] = biological target: GST-tagged tandem BRCT domain of BRCA1 (amino acids 1599-1863) (UniProt P38398); assay: pull-down; GST pull-down: purified endogenous DNA-PKcs incubated with GST, GST-RING or GST-BRCT, with or without phosphatase treatment of DNA-PKcs; both purified
[8] = biological target: GST-tagged RING finger domain of BRCA1 (amino acids 1-304) (UniProt P38398); assay: as above
[9] = biological target: DNA-dependent protein kinase catalytic subunit (DNA-PKcs), endogenous in HeLa cells (human (endogenous in HeLa)) (UniProt P78527); assay: pull-down; DNA-PKcs immunoprecipitated from HeLa (mock or 20 Gy) with antibody 25-4, washed, left on protein A sepharose, untreated or treated with lambda phosphatase, incubated with purified GST or GST-tagged fragments in wash buffer (50 mM Tris pH 7.5, 150 mM NaCl, 1 mM EDTA, 1% NP-40, 10% glycerol) with BSA, ambient temperature, 2 h; only the binder purified
[10] = biological target: FLAG-tagged N-terminal fragment of DNA-PKcs (amino acids 1-2713) (UniProt P78527); assay: pull-down; FLAG-tagged N-PKcs or C-PKcs immunoprecipitated from Sf9 lysates with FLAG antibody, left on protein A sepharose, incubated with purified GST or GST-BRCT in wash buffer with BSA; only the binder purified
[11] = biological target: GST-tagged DNA-PKcs fragment, amino acids 1500-2000 (UniProt P78527); assay: pull-down; purified GST-tagged DNA-PKcs fragments left on glutathione sepharose, incubated with purified His6-tagged BRCA1 tandem BRCT domain; blot with anti-His and GST antibodies; both purified

“DNA-dependent protein kinase catalytic subunit (DNA-PKcs), endogenous in HeLa cells (from UniProt P78527 1-4128)” was tested, and the binding [1] was “binds”, the binding [2] was “no binding” and the binding [3] was “binds”. For the same substance, the binding [4] was “binds”, the binding [5] was “no binding” and the binding [6] was “binds”.

In the case of “Endogenous full-length DNA-PKcs, purified (from UniProt P78527 1-4128)”, the binding [7] is reported as “binds” and the binding [8] is reported as “no binding”.

“GST-tagged RING finger domain of BRCA1 (amino acids 1-304) (from UniProt P38398 1-304) (domain or fragment)” was tested, and the binding [9] was “no binding”.

In the case of “GST-tagged tandem BRCT domain of BRCA1 (amino acids 1599-1863) (from UniProt P38398 1599-1863) (domain or fragment)”, the binding [9] is reported as “binds” and the binding [10] is reported as “binds”.

With “His6-tagged tandem BRCT domain of BRCA1 (amino acids 1599-1863) (from UniProt P38398 1599-1863) (domain or fragment)” the binding [11] was “binds weakly”.
